This is one part of the list. Construct or isoform of the protein are uncertain.

This assay deals with GST-SBP-ILF3 (Homo sapiens) (UniProt Q12906). Description: targeted RNA Bind-n-Seq. The note with it: RBNS binding buffer: 25 mM Tris pH 7.5, 150 mM KCl, 3 mM MgCl2, 0.1% Tween, 0.5 mg/mL BSA, 1 mM DTT; 27 nM protein, 750 pM RNA pool; temperature not stated; high values mean tight binding; sequences stand for … in GGGUAAAAGCGAGGUGAA…CGGGACAAGUAUUAUGGG
Turning to “UUUUUUUUUUGAGAUGGGACCCAUCUCCAG [tttttgagapaired]”, the binding signal (log2 fold change) is 0.311.

On to “UUUUUUUUUUGAGAGGGGUCCCCUCUCCUA [tttttgagapaired]”, for which the binding signal (log2 fold change) came to 0.955.

Consider “GUGUGUUGUGUUGGAUUCUAACACAGCGCA [gtspaired]”, for which the binding signal (log2 fold change) is -0.631.

As to “UUUUUUUUUUGAGAUCGAGACGAUCUCCUA [tttttgagapaired]”, the binding signal (log2 fold change) is 0.0599.

On to “GUGUGGUGUGUUGGCUCCUAACACAUCGCA [gtspaired]”, for which the binding signal (log2 fold change) was -0.517.

As for “UUUUUUUUUUGAGAGCGUAGCGCUCUUCUA [tttttgagapaired]”, the binding signal (log2 fold change) amounted to 0.271.

Consider “GGUGUGUGUGUUGGCACCUAACACACGCGC [gtspaired]”, for which the binding signal (log2 fold change) is -0.34.

Regarding “UUUUUUUUUUGAGACCGCAACGGUUUCCUA [tttttgagapaired]”, the binding signal (log2 fold change) came out at 0.262.

Take “UUUUUUUUUUGAGAUCGAACCGAUCUCCAG [tttttgagapaired]”: the binding signal (log2 fold change) worked out at 0.0525.

For “GGUUGGUGUGUUGGCACCUAACACAUCGAC [gtspaired]”, the binding signal (log2 fold change) is -0.541.

Turning to “UUUUUUUUUUGAGAGGGUGACCCUCUCCUA [tttttgagapaired]”, the binding signal (log2 fold change) was 0.213.

As for “UUUUUUUUUUGAGAUCGACACGAUCUUCUG [tttttgagapaired]”, the binding signal (log2 fold change) amounted to 0.0941.

For the sequence “UUUUUUUUUUGAGACGGAAGCUGUCUCCUG [tttttgagapaired]”, the binding signal (log2 fold change) turned out to be 0.792.

Consider “UUUUUUUUUUGAGAGCGAUUCGUUCUCCAG [tttttgagapaired]”, for which the binding signal (log2 fold change) was -0.141.

For “GUGGUGUGUGUUGGCACCUAACACACGCCG [gtspaired]”, the binding signal (log2 fold change) is -0.253.

For “UUUUUUUUUUGAGACCGUGGCGGUCUCCUA [tttttgagapaired]”, the binding signal (log2 fold change) is 0.633.

For the sequence “UUUUUUUUUUGAGACUGGCACAGUCUCCAG [tttttgagapaired]”, the binding signal (log2 fold change) stood at 0.67.

For “UUUUUUUUUUGAGAGGGUGUCCUUCUCCAG [tttttgagapaired]”, the binding signal (log2 fold change) came to 0.707.

For the sequence “UUUUUUUUUUGAGAUGGAUGCCAUCUCCGG [tttttgagapaired]”, the binding signal (log2 fold change) worked out at 0.211.

As to “UUUUUUUUUUGAGAGGGCUCCCUUCUCCAG [tttttgagapaired]”, the binding signal (log2 fold change) amounted to 0.453.

Consider “GGUGUGUGUGUUGGCGUCUAACACAUAUAC [gtspaired]”, for which the binding signal (log2 fold change) is -0.7.

Consider “UUUUUUUUUUGAGAUGGGACCCAUCUUCUA [tttttgagapaired]”, for which the binding signal (log2 fold change) stood at 0.304.

For “UUUUUUUUUUGAGAUGGGGACCAUCUUCUG [tttttgagapaired]”, the binding signal (log2 fold change) was 0.472.

Regarding “UUUUUUUUUUGAGAUGGUCUCCGUCUCCUA [tttttgagapaired]”, the binding signal (log2 fold change) was found to be 0.475.

Regarding “UUUUUUUUUUGAGAUCGAUUCGAUCUCCUA [tttttgagapaired]”, the binding signal (log2 fold change) was -0.54.

For “UUUUUUUUUUGAGAUGGGAACCAUCUCCGG [tttttgagapaired]”, the binding signal (log2 fold change) is -0.0102.

As to “GUGUGUGGUGUUGGUCUCUAACACCACGCA [gtspaired]”, the binding signal (log2 fold change) was -0.476.

On to “UUUUUUUUUUGAGACGGUGUCCGUCUCCUA [tttttgagapaired]”, for which the binding signal (log2 fold change) was 0.748.

As for “UUUUUUUUUUGAGAGGGGGCCCCUCUCCUG [tttttgagapaired]”, the binding signal (log2 fold change) worked out at 1.3.

“UUUUUUUUUUGAGACGGGCACUGUCUCCUA [tttttgagapaired]”: the binding signal (log2 fold change) amounted to 0.839.

Regarding “UUUUUUUUUUGAGACUGCGUCAGUUUCCAG [tttttgagapaired]”, the binding signal (log2 fold change) is 0.765.

In the case of “UUUUUUUUUUGAGACGGUAUCCGUCUCCUA [tttttgagapaired]”, the binding signal (log2 fold change) turned out to be 0.0931.

For the sequence “UUUUUUUUUUGAGAGUGGGACAUUCUUCUA [tttttgagapaired]”, the binding signal (log2 fold change) was determined as 0.364.

With “GUGUGGUGUGUUGGUACCUAACACACCGCG [gtspaired]”, the binding signal (log2 fold change) was -0.838.

With “GUGUGGUGUGUUGGAGUCUAACACACUACG [gtspaired]”, the binding signal (log2 fold change) was -0.672.

Consider “GUGUGGUGUGUUGGCGUCUAACACACUAUA [gtspaired]”, for which the binding signal (log2 fold change) was -1.03.

In the case of “UUUUUUUUUUGAGAGGGAGACCCUCUCCUA [tttttgagapaired]”, the binding signal (log2 fold change) amounted to 0.322.

Turning to “UUUUUUUUUUGAGAGUGAGGCACUCUCCGG [tttttgagapaired]”, the binding signal (log2 fold change) amounted to 0.131.

On to “UUUUUUUUUUGAGAGCGGGGCGCUCUUCUG [tttttgagapaired]”, for which the binding signal (log2 fold change) worked out at 0.504.

For “UUUUUUUUUUGAGAGCGAAUCGCUCUCCGG [tttttgagapaired]”, the binding signal (log2 fold change) amounted to 0.18.

Regarding “UUUUUUUUUUGAGAGGGUACCCCUCUCCGG [tttttgagapaired]”, the binding signal (log2 fold change) is 0.175.

Turning to “GGUGGUUGUGUUGGAUUCUAACACAAUCGC [gtspaired]”, the binding signal (log2 fold change) is -0.621.

As for “GUGGUUGGUGUUGGACCCUAACACCAAUCA [gtspaired]”, the binding signal (log2 fold change) was -0.44.

On to “UUUUUUUUUUGAGACGGCGUCCGUCUCCUA [tttttgagapaired]”, for which the binding signal (log2 fold change) was 0.811.

Regarding “UUUUUUUUUUGAGACCGAAUCGGUCUCCUA [tttttgagapaired]”, the binding signal (log2 fold change) was 0.269.

For the sequence “GUUGUGUGUGUUGGCACCUAACACACGCAG [gtspaired]”, the binding signal (log2 fold change) is -0.382.

For the sequence “UUUUUUUUUUGAGAGGGUGCCCCUCUUCUA [tttttgagapaired]”, the binding signal (log2 fold change) is 0.457.

Regarding “GUGGUGUGUGUUGGCACCUAACACACAUCA [gtspaired]”, the binding signal (log2 fold change) is -0.36.

On to “GUGGUGUGUGUUGGCAUCUAACACACGCCG [gtspaired]”, for which the binding signal (log2 fold change) is -0.655.

Take “UUUUUUUUUUGAGACGGCAGCCGUCUUCUG [tttttgagapaired]”: the binding signal (log2 fold change) turned out to be 0.678.

With “UUUUUUUUUUGAGAUGGGGACCAUUUCCGG [tttttgagapaired]”, the binding signal (log2 fold change) was found to be 0.808.

With “GGUGUGUGUGUUGGAGCCUAACACACGCGC [gtspaired]”, the binding signal (log2 fold change) was -0.329.

As for “UUUUUUUUUUGAGAGGGUGUCCUUCUCCUA [tttttgagapaired]”, the binding signal (log2 fold change) came to 0.627.

Turning to “UUUUUUUUUUGAGACGGUAACCGUUUCCUA [tttttgagapaired]”, the binding signal (log2 fold change) turned out to be 0.387.

Consider “GGUUGGUGUGUUGGCUUCUAACACAUCGAC [gtspaired]”, for which the binding signal (log2 fold change) is -0.749.

As for “UUUUUUUUUUGAGAACGGGACGUUCUUCUA [tttttgagapaired]”, the binding signal (log2 fold change) came out at 0.242.

In the case of “GUGGUUGGUGUUGGUACCUAACACCGACUA [gtspaired]”, the binding signal (log2 fold change) was -0.45.

As to “GUGUGGUGUGUUGGCACCUAACACACUACG [gtspaired]”, the binding signal (log2 fold change) was -0.751.

Turning to “UUUUUUUUUUGAGAUCGACACGAUCUUCUA [tttttgagapaired]”, the binding signal (log2 fold change) is -0.0491.

Regarding “UUUUUUUUUUGAGAUGGAUACCAUCUCCUA [tttttgagapaired]”, the binding signal (log2 fold change) was determined as 0.0893.

For the sequence “GUGUGUUGUGUUGGCCCCUAACACAGCGCA [gtspaired]”, the binding signal (log2 fold change) is -0.276.

Regarding “GUUGGUGGUGUUGGAGCCUAACACCGCCAA [gtspaired]”, the binding signal (log2 fold change) is -0.332.

Consider “UUUUUUUUUUGAGAGCGAACCGUUCUCCUG [tttttgagapaired]”, for which the binding signal (log2 fold change) is 0.344.

Take “GGUUGUGGUGUUGGCCUCUAACACCAUAAC [gtspaired]”: the binding signal (log2 fold change) was -0.151.

For the sequence “GUUGUGUGUGUUGGCUCCUAACACACGCGA [gtspaired]”, the binding signal (log2 fold change) was -0.802.

Source of the values: publication PMC5892938.
